Patent US6306899A (priority 1999, dated 2001)

What was measured:
HSV-1 = experiment: microbe, parasite or virus in culture; assay type: cell-based
HSV-II = experiment: microbe, parasite or virus in culture; assay type: cell-based
HSV-I TK strain = experiment: microbe, parasite or virus in culture; assay type: cell-based
HBV = conditions: 2.2.15 cells, 8640 min
Procedure: (§1) The biological activity of the present compounds was assessed as described by Doong, S-L, et al., Proc. Natl. Acad. Sci. U.S.A 88, 8495-8499 (1991). The human hepatoma cell line carrying HBV (cell line designated 2.2.15) provided by Dr. G. Aces was used in the study. Price, et al., Proc. Natl. Acad. Sci. U.S.A. 86, 8541 (1989). Briefly, six day-old cultures were treated with varying concentrations of the drug in the culture medium (Minimum essential medium with Earl's salts and 10% fetal bovine serum). The drug was left in the culture medium for a period of 3 days after which period the medium was aspirated and fresh medium containing the same concentration(s) of the drug was added. […] Inhibition of the viral replication was determined by the comparison of the viral DNA from drug-treated versus control cultures not treated with the drug. In addition, supernatant obtained from the polyethylene glycol precipitation of the cell culture medium (above) was measured for the presence of two HBV antigens (HBsAg and HBeAg) using enzyme immunoassay kits from Abbott Laboratories, Inc. [HBs (rDNA) EIA and HBe (rDNA)EIA], pursuant to standard practice (FIG. 3A). RNA levels were determed using Northern analysis with cellular albumin RNA being measured as a load control to standardize the quality of the HBV RNA measurement (FIG. 3B).

HBsAg = conditions: read-out: Anti-viral activity (ED50) HbsAg; 2.2.15 cells; 8640 min
Procedure: as §1

Compound	activity against HSV-I (HSV-1)	activity against HSV-II (HSV-II)	further results
O=C1OCc2c1cc1ccc3c(c1c2-c1ccc2c(c1)OCO2)OCO3 [Compound 145, 7,8-methylenedioxy-1-(3',4'-methylenedioxyphenyl)-2-hydroxymethylnaphthalene-3-carboxylic acid lactone]	–	–	pEC50 (HSV-1; Human alphaherpesvirus 1, read-out: ED50 against HSV-1): 5.96; activity against HSV-I (HSV-1; in words): showed anti-HSV activity; pEC50 (HSV-II; Human alphaherpesvirus 2, read-out: ED50 against HSV-II): 5.74; activity against HSV-II (HSV-II; in words): showed anti-HSV activity; pEC50 (HSV-I TK strain; Human alphaherpesvirus 1, read-out: ED50 against HSV-I TK strain): 5.07; activity against HSV TK minus strain (HSV-I TK strain; in words): showed anti-HSV activity
O=C1OC(=O)c2c1cc1c(Br)cc3c(c1c2-c1cc2c(cc1Br)OCO2)OCO3 [ZHU-IX-120-1, 5-bromo-7,8-methylenedioxy-1-(2'-bromo-4',5'-methylenedioxyphenyl)napthalene-2,3-dicarboxylic acid anhydride]	inactive	inactive	–
O=C1OC(=O)c2c1c(Br)c1cc3c(cc1c2-c1cc2c(cc1Br)OCO2)OCO3 [ZHU-IX-120-2, 1-bromo-6,7-methylenedioxy-4-(2'-bromo-4', 5'-methylenedioxyphenyl)napthalene-2,3-dicarboxylic acid anyhdride]	inactive	inactive	–
O=C1OC(=O)c2c1cc1cc3c(cc1c2-c1cc2c(cc1Br)OCO2)OCO3 [ZHU-IX-120-3, 6,7-methylenedioxy-1-(2'-bromo-4',5'-methylenedioxyphenyl)napthalene-2,3-dicarboxylic acid anhydride]	inactive	inactive	–
Cc1c(CO)cc2ccc3c(c2c1-c1ccc2c(c1)OCO2)OCO3 [ZHU-IX-122-1, 3-methyl-5,6-methylenedioxy-4-(3',4'-methylenedioxyphenyl)-2-hydroxymethylnapthalene]	inactive	inactive	–
OCc1cc2ccc3c(c2c(-c2ccc4c(c2)OCO4)c1CO)OCO3 [ZHU-IX-124-2, 2,3-dihydroxymethyl-5,6-methylenedioxy-4-(3',4'-methylenedioxyphenyl)napthalene]	inactive	inactive	–
OCc1cc2c(Br)cc3c(c2c(-c2ccc4c(c2)OCO4)c1CO)OCO3 [ZHU-IX-135-1, 2,3-dihydroxymethyl-5-bromo-7,8-methylenedioxy-1-(3', 4'-methylenedioxyphenyl)napthalene]	inactive	inactive	–
O=C1OCc2cc3ccc4c(c3c(-c3ccc5c(c3)OCO5)c21)OCO4 [ZHU-IX-139-2, 7,8-methylendioxy-1-(3',4'-methylenedioxyphenyl)-3-hydroxymethylnapthalene-2-carboxylic acid lactone]	inactive	inactive	–
O=C1OCc2c1cc1c(Br)cc3c(c1c2-c1cc2c(cc1Br)OCO2)OCO3 [ZHU-IX-143, 8,2'-dibromo-5,6-methylenedioxy-4-(4',5'-methylenedioxyphenyl)-3-hydroxymethylnapthalene-2-carboxylic acid lactone]	inactive	inactive	–
Cc1c(C=O)cc2ccc3c(c2c1-c1ccc2c(c1)OCO2)OCO3 [ZHU-IX-189, 5,6-methylenedioxy-4-(3',4'-methylendioxyphenyl)-2-methylnapthalene-3-aldehyde]	inactive	inactive	–
Cc1c(C(=O)O)cc2ccc3c(c2c1-c1ccc2c(c1)OCO2)OCO3 [ZHU-X-4]	inactive	inactive	–
Cc1c(C(=O)O)cc2ccc3c(c2c1-c1ccc2c(c1)OCO2)OCO3 [ZHU-X-10, sodium 5,6-methylenedioxy-4-(3',4'-methylenedioxyphenyl)-2-methylnapthalene-3-carbonate]	–	–	pEC50 (HBV): < 5.00; pEC50 (HBsAg): < 5.00

pEC50: −log10 of the molar value. Read-outs that look alike come from different tables or passages of the source.
